# Assay results: the supplement of paper PMC12217912
# The other results are listed elsewhere or left out. Sequences were assembled here from the parent chain. Values near 0.05 are background.
# B1: TEV protease; numbered along this chain (parent)
# chain: MGESLFKGPRDYNPISSSICHLTNESDGHTTSLYGIGFGPFIITNKHLFRRNNGTLVVQSLHGVFKVKDTTTLQQHLVDGRDMIIIRMPKDFPPFPQKLKFREPQREERICLVTTNFQTKSMSSMVSDTSCTFPSGDGIFWKHWIQTKDGQCGSPLVSTRDGFIVGIHSASNFTNTNNYFTSVPKNFMELLTNQEAQQWVSGWRLNADSVLWGGHKVFMVKPEEPFQPVKEATQL
# Variants of: B1
# Experiment: raw area under fraction-flipped curve 0-4 h after induction (AUC4h, not background-subtracted), DNA-recorder readout of cleavage of the substrate (dimensionless); higher = more cleavage of the substrate by the protease variant
# Settings: temperature: 34 °C; time window: 0-4 h after rhamnose induction
# Protocol: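 In vivo DNA recorder in E. coli TOP10(DE3) ΔrhaA at 34 °C. Each TEVp single-site mutant (parent TEVp 0) is paired with a single-site variant of the 7-mer TEVs (canonical ENLYFQ|S). The substrate sits between flexible linkers in a Bxb1-sfGFP-TEVs-SsrA fusion, so cleavage stabilises Bxb1 and speeds flipping of a recombination array, read by NGS. The value is the raw area under the fraction-flipped curve over 0-4 h after rhamnose induction (AUC4h), with ≥20 reads per time point. It is not background-subtracted; inactive controls average about 0.047.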
# 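Also: Bxb1 expression induced with 0.2% (w/v) L-rhamnose at OD600 near 0.5, cultures sampled hourly, flipped fraction per protease–substrate barcode pair counted by paired-end Illumina sequencing.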
variant,measurement,value
V64S,area with substrate ECLYFQS,0.0832
same,area with substrate EDLYFQS,0.131
same,area with substrate EELYFQS,0.0949
same,area with substrate EKLYFQS,0.135
same,area with substrate EQLYFQS,0.123
same,area with substrate ERLYFQS,0.123
same,area with substrate ESLYFQS,0.103
same,area with substrate ETLYFQS,0.108
T70V,area with substrate ECLYFQS,0.0758
same,area with substrate EFLYFQS,0.0814
same,area with substrate EILYFQS,0.0725
same,area with substrate EKLYFQS,0.0809
same,area with substrate EMLYFQS,0.0696
same,area with substrate EPLYFQS,0.0849
same,area with substrate ERLYFQS,0.0812
same,area with substrate ESLYFQS,0.0699
same,area with substrate ETLYFQS,0.0761
same,area with substrate EVLYFQS,0.0621
same,area with substrate EYLYFQS,0.095
G80F,area with substrate ECLYFQS,0.0843
same,area with substrate EDLYFQS,0.13
same,area with substrate EFLYFQS,0.0635
same,area with substrate EGLYFQS,0.108
same,area with substrate EHLYFQS,0.103
same,area with substrate EKLYFQS,0.0998
same,area with substrate ELLYFQS,0.0673
same,area with substrate EMLYFQS,0.0863
same,area with substrate EPLYFQS,0.106
same,area with substrate EQLYFQS,0.12
same,area with substrate ERLYFQS,0.0659
same,area with substrate ESLYFQS,0.0963
same,area with substrate EWLYFQS,0.101
same,area with substrate EYLYFQS,0.103
M83Y,area with substrate ECLYFQS,0.058
same,area with substrate EILYFQS,0.0261
same,area with substrate EKLYFQS,0.0748
same,area with substrate ELLYFQS,0.0461
same,area with substrate EQLYFQS,0.0606
same,area with substrate ERLYFQS,0.01
same,area with substrate ESLYFQS,0.05
same,area with substrate ETLYFQS,0.0791
same,area with substrate EVLYFQS,0.0602
I86G,area with substrate ECLYFQS,0.0485
same,area with substrate EILYFQS,0.0347
same,area with substrate ELLYFQS,0.0315
same,area with substrate EQLYFQS,0.0385
same,area with substrate ESLYFQS,0.0393
R87W,area with substrate ECLYFQS,0.139
same,area with substrate EGLYFQS,0.095
same,area with substrate EILYFQS,0.0964
same,area with substrate EKLYFQS,0.0979
same,area with substrate EPLYFQS,0.116
same,area with substrate ERLYFQS,0.102
same,area with substrate ESLYFQS,0.0974
same,area with substrate EVLYFQS,0.0891
same,area with substrate EWLYFQS,0.106
P93F,area with substrate ECLYFQS,0.0994
same,area with substrate EILYFQS,0.0873
same,area with substrate EKLYFQS,0.0873
same,area with substrate ESLYFQS,0.0792
same,area with substrate ETLYFQS,0.0931
same,area with substrate EYLYFQS,0.102
P93N,area with substrate ECLYFQS,0.11
same,area with substrate EILYFQS,0.121
same,area with substrate EKLYFQS,0.0921
same,area with substrate EPLYFQS,0.151
same,area with substrate ERLYFQS,0.0955
Q97F,area with substrate ECLYFQS,0.102
same,area with substrate EGLYFQS,0.0959
same,area with substrate ESLYFQS,0.102
Q97K,area with substrate ECLYFQS,0.103
same,area with substrate EILYFQS,0.0828
same,area with substrate ELLYFQS,0.0923
same,area with substrate ESLYFQS,0.11
R109F,area with substrate ECLYFQS,0.12
same,area with substrate EFLYFQS,0.0899
same,area with substrate EILYFQS,0.1
same,area with substrate EKLYFQS,0.0968
same,area with substrate EMLYFQS,0.119
same,area with substrate EPLYFQS,0.0998
same,area with substrate ERLYFQS,0.125
same,area with substrate ESLYFQS,0.128
same,area with substrate EVLYFQS,0.0857
same,area with substrate EWLYFQS,0.0496
T114D,area with substrate ECLYFQS,0.124
same,area with substrate EGLYFQS,0.0853
same,area with substrate EHLYFQS,0.082
same,area with substrate EPLYFQS,0.0983
same,area with substrate EQLYFQS,0.156
same,area with substrate ERLYFQS,0.0836
same,area with substrate EWLYFQS,0.0865
T115P,area with substrate ECLYFQS,0.0778
same,area with substrate EILYFQS,0.125
same,area with substrate EQLYFQS,0.129
same,area with substrate ERLYFQS,0.0828
same,area with substrate EVLYFQS,0.125
same,area with substrate EYLYFQS,0.0678
F117D,area with substrate ECLYFQS,0.0948
same,area with substrate ELLYFQS,0.123
same,area with substrate EMLYFQS,0.0932
same,area with substrate EQLYFQS,0.129
same,area with substrate EVLYFQS,0.0851
F117W,area with substrate ECLYFQS,0.125
same,area with substrate EILYFQS,0.102
same,area with substrate EKLYFQS,0.0869
same,area with substrate ELLYFQS,0.0929
same,area with substrate ERLYFQS,0.0808
same,area with substrate ESLYFQS,0.136
same,area with substrate EVLYFQS,0.103
same,area with substrate EYLYFQS,0.103
T119P,area with substrate ECLYFQS,0.134
same,area with substrate EILYFQS,0.0795
same,area with substrate EKLYFQS,0.104
same,area with substrate ESLYFQS,0.104
same,area with substrate EVLYFQS,0.111
V126L,area with substrate ECLYFQS,0.119
same,area with substrate EILYFQS,0.0751
same,area with substrate ELLYFQS,0.119
same,area with substrate ESLYFQS,0.0948
F133T,area with substrate ECLYFQS,0.118
same,area with substrate EILYFQS,0.115
same,area with substrate EKLYFQS,0.1
same,area with substrate ELLYFQS,0.115
same,area with substrate EMLYFQS,0.112
same,area with substrate EQLYFQS,0.125
same,area with substrate ESLYFQS,0.122
same,area with substrate EWLYFQS,0.108
same,area with substrate EYLYFQS,0.132
T147D,area with substrate ECLYFQS,0.0763
same,area with substrate EHLYFQS,0.0803
same,area with substrate EILYFQS,0.0684
same,area with substrate ELLYFQS,0.0741
same,area with substrate EWLYFQS,0.0444
K148D,area with substrate ECLYFQS,0.0844
same,area with substrate EILYFQS,0.069
same,area with substrate EKLYFQS,0.0749
same,area with substrate EMLYFQS,0.105
same,area with substrate EPLYFQS,0.108
same,area with substrate EQLYFQS,0.0794
same,area with substrate ESLYFQS,0.0842
Q151R,area with substrate ECLYFQS,0.0876
same,area with substrate EHLYFQS,0.128
same,area with substrate EKLYFQS,0.092
same,area with substrate ELLYFQS,0.0673
same,area with substrate EMLYFQS,0.111
same,area with substrate EPLYFQS,0.134
same,area with substrate ERLYFQS,0.0821
same,area with substrate ESLYFQS,0.0968
same,area with substrate EVLYFQS,0.0883
same,area with substrate EWLYFQS,0.0422
same,area with substrate EYLYFQS,0.123
S154Q,area with substrate ECLYFQS,0.0558
same,area with substrate EHLYFQS,0.0921
same,area with substrate EILYFQS,0.0695
same,area with substrate ELLYFQS,0.095
same,area with substrate EMLYFQS,0.121
same,area with substrate EQLYFQS,0.0971
same,area with substrate ESLYFQS,0.105
same,area with substrate EVLYFQS,0.102
T159R,area with substrate ECLYFQS,0.169
same,area with substrate EFLYFQS,0.13
same,area with substrate EILYFQS,0.0987
same,area with substrate EKLYFQS,0.134
same,area with substrate EWLYFQS,0.136
F173R,area with substrate ECLYFQS,0.0833
same,area with substrate ELLYFQS,0.0727
same,area with substrate EQLYFQS,0.0909
same,area with substrate ESLYFQS,0.0928
same,area with substrate EYLYFQS,0.0911
